B1: EGFP-tagged Drp1 mutant G363D (natural protein)
chain: not shown
notes: Dynamin-related protein 1 (Drp1), isoform 1 (transcript variant 1), cDNA from Origene (RG221708), with G363D made by QuikChange site-directed mutagenesis; In pmEGFP-C1 (Addgene 36412), as m1; also called EGFP-G363D-Drp1; G363D-Drp1; source: HeLa (Kyoto) cells, transfected, measured in the cytosol of living cells
B2: EGFP-tagged Drp1 mutant C505A (natural protein)
chain: not shown
notes: Dynamin-related protein 1 (Drp1), isoform 1 (transcript variant 1), cDNA from Origene (RG221708), with C505A made by QuikChange site-directed mutagenesis; In pmEGFP-C1 (Addgene 36412), as m1; also called EGFP-C505A-Drp1; C505A-Drp1; source: HeLa (Kyoto) cells, transfected, measured in the cytosol of living cells

Biological target: the molecule itself
Test: fluorescence correlation spectroscopy (FCS); in the cytosol of living HeLa cells 24 h after transfection, 36 °C, low expression; oligomer size from the diffusion coefficient by the length-scale dependent viscosity model (Eq. 1); KD: tetramer to dimers, calculated for each cell from the FCS amplitudes (Eq. 2); excess of endogenous untagged Drp1, one subunit tagged in each oligomer

Row | Protein | stoichiometry N
1 | B1 | 2
2 | B2 | 2

From publication PMC6459820, “Determination of oligomerization state of Drp1 protein in living cells at nanomolar concentrations” (Scientific Reports, 2019)
